# Experimental data taken from the supplement of paper PMC10185492.
# This is one part of the list. Read counts after selection give these values, which scatter widely.
# Tested on: SARS-CoV-2 3CLpro (nsp5)
# Assay: substrate phage enrichment score (protease-eluted vs HEPES control, +1 offset) (ratio); higher = better cleaved substrate
# Details: selection round: 4; protease elution time: 15 min
# Protocol: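 Random heptapeptide substrate phage display (M13 pIII fusion, heptapeptide between an N-terminal biotinylated AviTag GLNDIFEAQKIEWHE and pIII; phages immobilised on streptavidin) eluted by cleavage with 50 nM protease in 20 mM HEPES at 37 °C. Selected phages were NGS sequenced, and the enrichment score is (reads in protease sample + 1)/(reads in HEPES blank-selection control + 1).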
row,Substance,substrate phage enrichment score
1,AGEKLTP,> 23
2,KANPRLQ,> 99
3,RRTYCTT,2.92
4,AHPWCSL,0.114
5,QIRNGAT,9
6,VSPAHHH,0.238
7,VPCGYTW,2.18
8,AEGVNHR,> 23
9,REPLTWP,0.6
10,SRMCPSQ,2.67
11,EPCWPAY,> 27
12,TRAPQQQ,1.58
13,WAAAHHH,0.598
14,ECRETRI,> 27
15,SRIQASD,> 24
16,DHHHHGA,0.432
17,SDDRFRQ,4.75
18,NEGRLWM,> 23
19,QSRSQLQ,> 33
20,THTGVRP,> 26
21,AFSEPTA,18
22,TDIPALR,> 38
23,LRCHMSS,0.316
24,NQGGSAA,0.833
25,HRHTNLQ,> 40

row,Substance,substrate phage enrichment score
1,SSTPGNQ,1.5
2,QWPHAKP,> 29
3,RLHDQAG,2.22
4,TRMSDTR,> 31
5,ADRVPYV,> 36
6,EMRISVG,4.75
7,SLPVNLQ,> 233
8,TRGPQVP,> 23
9,SGVCMRK,> 62
10,LESPCQA,1.66
11,AISNDTV,0.217
12,VGYAKLQ,> 42
13,CYISEAD,1.92
14,NASAGSG,6.5
15,KAQSSNE,> 29
16,CNRPASR,0.385
17,RTLTPMV,5.5
18,RPTCHLQ,> 61
19,VNLKHAP,4.89
20,LTNVKVH,5.33
21,NWSLSPG,11
22,CFRTSVR,1.4
23,KDAVSFQ,11
24,SANLHGH,> 57
25,YKPGGRT,1.47

row,Substance,substrate phage enrichment score
1,PSKQTED,7.33
2,DNRRPEY,> 21
3,TESELQG,17
4,EVGPRGP,16
5,SSMDINR,1.27
6,VKAPAFG,> 28
7,RQPCTLQ,> 612
8,IGAAHHH,0.509
9,ESAPHTK,> 27
10,GHTASPA,0.926
11,PQSQYYP,1.26
12,RQEPMNA,> 37
13,RSPWDSR,> 35
14,LQKATGK,22.5
15,RALESKQ,6.75
16,RKDNMIS,> 28
17,EVPNCLQ,> 21
18,TSGGGSH,1.46
19,STLGHSR,> 148
20,YLQDNAK,0.857
21,DLWTWGQ,2.44
22,RIWRLDC,> 37
23,QPSACRA,1.22
24,AERECRD,1.08
25,PTCRTVR,> 57

row,Substance,substrate phage enrichment score
1,CAAAQHH,0.716
2,VMSFPCS,> 22
3,LVRAPYH,4.6
4,SCNCMNC,2.83
5,NRPCHMR,> 25
6,VTKWSEL,> 28
7,TSYGHHR,12
8,QNLKFRP,> 48
9,NSAAHHH,2.1
10,MRGWALQ,1
11,KREALRP,2.75
12,GTHEDPP,> 23
13,GINNTAA,2
14,LNGTVLQ,> 54
15,GLESFQG,> 37
16,GCSSLHG,2
17,GDHTRLQ,> 83
18,EKDVWSR,2.14
19,RTLTVLQ,> 39
20,HSQALNG,24.5
21,GALPVLQ,> 38
22,ASRACTQ,> 26
23,LNFNCNS,4.83
24,YTKSGPA,3.14
25,NTRSCLQ,> 233

row,Substance,substrate phage enrichment score
1,TWQLSCP,3.14
2,NESDGRP,10.5
3,HGSRGWT,> 66
4,KTPSSMQ,> 186
5,SPTPEKG,0.118
6,PLFNHYH,1.92
7,ANCYLKP,> 25
8,QRGVCQC,1.54
9,RFRENLP,> 30
10,VDFQGGS,2.22
11,KTMPRSP,12.5
12,SAASHHH,0.667
13,CSRLQST,45.5
14,RVGPMTQ,12
15,GTHGSQT,0.643
16,PLAAHHH,0.282
17,WSVRACR,2.33
18,SAGMPKR,12
19,PATTVLH,57.5
20,IPRTNER,2.14
21,EHSALTV,8
22,ARCCTPE,2.43
23,LSREWPA,23.5
24,MEAAHHH,0.522
25,SQVDSTG,9

row,Substance,substrate phage enrichment score
1,LRTSTLQ,> 43
2,SMQNEEP,> 32
3,VRRENVR,5.2
4,HAQLMTR,> 23
5,CNVSMPP,> 59
6,ASAAAHH,0.711
7,ESVQIQS,26.5
8,TSRCMNL,> 21
9,LNIRDCP,1.12
10,PCAQYFQ,5.77
11,GNAAAHH,0.467
12,RCVLSCR,> 21
13,NPNDWRV,1.76
14,PNHHHGA,0.423
15,QQGSDFS,1.27
16,VPGQSWR,0.219
17,TRSGGAS,> 31
18,YERSMDG,> 21
19,GRIETKT,0.556
20,PFPQMTQ,2.38
21,GSMPQVP,> 21
22,AQVRSIP,2.56
23,DSAAAHH,0.657
24,MTLTDTS,3.62
25,LNAVHLR,11.4

row,Substance,substrate phage enrichment score
1,SQPSNHK,> 22
2,RLRTTLQ,> 66
3,HVPRQIE,13.5
4,AIDAEYR,> 22
5,EYATDSS,9.67
6,TRHTTLQ,> 25
7,STRLMCQ,10.5
8,DTPTNVR,1.2
9,PHRCTFQ,> 28
10,PATAHHH,2.29
11,ICCATSG,> 38
12,HHTTAQS,3.6
13,PRSEEHC,> 31
14,PQKLRDP,0.0541
15,TKHSRTH,0.789
16,AQQGVTR,1.75
17,TRNGSGI,0.5
18,TSGYLSE,7.29
19,AADANLG,> 32
20,VSRDMPG,0.205
21,SLTSEIG,> 23
22,AENTLLQ,> 21
23,STEHNIR,> 21
24,SCCTQPG,> 29
25,LKGSSKL,> 23

row,Substance,substrate phage enrichment score
1,QQCPLDA,13
2,KYSNGKY,0.65
3,SRWGRCR,1.18
4,PRSSQVG,> 30
5,SWCTVPA,> 25
6,SSSLPNR,4.75
7,RPGLHLE,3.25
8,GEAAHHH,0.642
9,AWRPEAG,> 22
10,DRAAAHH,0.289
11,KGLICRP,0.172
12,DPQRNSR,4.83
13,ARVKLRN,17.5
14,PVRQSTG,2.67
15,VIECYMM,1.45
16,PNYTGHT,0.846
17,SPRHSVR,2
18,ANRSQWQ,4.8
19,TCGTPKK,2.58
20,TRWVHGT,11.3
21,TRARCSG,1.31
22,ALLQANK,> 350
23,SSAHHHH,0.265
24,TTYMSPR,10
25,VTGDCRE,> 24

row,Substance,substrate phage enrichment score
1,LMQSPSR,9
2,TTRDPAR,> 27
3,VLIQCGP,4
4,QHGSIGR,11.7
5,RAAAQHQ,0.667
6,SRDNSIP,28
7,NPNGLIR,2.14
8,ASGNIGS,0.423
9,AETHQAT,> 29
10,RQRSCLQ,> 67
11,PGLFLRD,1.18
12,TYFQGGS,2.55
13,LGLPNLQ,28.3
14,GALYKPA,1.54
15,HGNGSLH,3.4
16,ESLKNPH,1.89
17,REEVCAR,0.289
18,RTSGVRE,7.25
19,SQIGDET,1.04
20,TAPSMPA,0.353
21,CVYRTNG,1.18
22,INVNIRP,> 49
23,NSTCPLT,0.0741
24,DVNVSEQ,> 49
25,YGLMNRG,2.6

row,Substance,substrate phage enrichment score
1,SFGTQLQ,> 48
2,ATRLQAV,> 351
3,KQNTRLP,0.571
4,TSSRNPR,1
5,VHRNPLS,0.952
6,WRRTPAA,> 56
7,AKVSRWG,> 31
8,IRESKLN,2.33
9,CGPSRVP,> 22
10,DDDKSPL,> 25
11,SENAVAQ,19.5
12,PAKCGCA,3.67
13,EAAHHHH,0.712
14,SARQWAQ,1.91
15,QHCHTVK,> 45
16,TGVVGTT,2.69
17,GTLNTAP,6.67
18,LHEKCRW,> 25
19,QRTSVLH,> 22
20,VKTHGSV,2.53
21,ASTGPKM,1.8
22,LPRANYG,1.36
23,TARETGM,4.23
24,ELNSRAG,19.5
25,RECFGDM,13.6

row,Substance,substrate phage enrichment score
1,LMTAPSG,> 21
2,NRCVTWQ,11.3
3,AACEFMA,4.62
4,SSLKPNA,> 24
5,FSSIGME,> 25
6,DNAAAHH,1.01
7,EEDGASR,6.33
8,AYYRRPD,2.83
9,GAAFNTK,> 28
10,LMALPKA,3.67
11,PQAAHHH,0.5
12,MSEAGNR,0.25
13,CGHLLKD,47.5
14,CRCCQLG,> 55
15,SPHTNSS,6.67
16,RSATTNQ,2.05
17,SLNSPKP,1.75
18,ASDVKNP,0.0909
19,NCNVNPN,> 25
20,LKDSPPQ,15.5
21,IQHECQQ,> 61
22,QDVRQTH,0.8
23,KRSCILQ,> 22
24,RSATSPD,> 41
25,AVCDYAR,0.625

row,Substance,substrate phage enrichment score
1,SSGEAVL,1.45
2,AKLQCCT,30
3,GHQAVLQ,> 27
4,CRSRPEF,1.26
5,TNSAAHH,0.294
6,SHMPTQS,0.00684
7,AKNSLGP,2.62
8,QGPQGTS,1
9,NCRVILQ,> 25
10,AYCDDLR,11
11,RQGCRST,7.33
12,CAHSYLQ,> 75
13,FNVEKLT,> 53
14,GSILPKG,15
15,HARCQWQ,> 57
16,NKVRLHA,25.5
17,MSLERCF,> 32
18,RETPGGA,6.75
19,RSSTLLQ,> 49
20,GPSLKYR,5.11
21,HQNTRIP,1.3
22,SAAAQKH,1.04
23,TFPRQVP,1.68
24,CRIMNLQ,> 38
25,FCHHPTT,> 27

row,Substance,substrate phage enrichment score
1,QIQRQES,5.33
2,TSEALTR,> 43
3,SYECFRT,0.312
4,DRQRAMK,1.07
5,EPAQLCS,> 40
6,GSSVILQ,> 69
7,SERSTVQ,4.44
8,LCPSAAA,0.917
9,QRTNVLQ,4.6
10,SAEDCME,11.2
11,RDRANHA,1.52
12,VHRPLLR,3.6
13,EHVTEMQ,> 24
14,AWEQKTT,> 29
15,PSTRDLK,> 24
16,STSGSTT,> 32
17,PSWPVDC,5.25
18,HSCNVIE,> 21
19,RVLQGSV,> 26
20,ATQKTRG,> 46
21,NRNQLSS,2.9
22,TNGTYSK,> 41
23,RILSYDR,3.82
24,MEATLQS,> 120
25,YAPRCHW,0.25

row,Substance,substrate phage enrichment score
1,RFRQEER,2.88
2,SPVPYMQ,11
3,HRGLGHS,5
4,RAAAHHQ,0.897
5,ALNPLLM,> 46
6,RNVSNLQ,33
7,YVDSALR,1.15
8,SFRCDVS,> 45
9,MTSRDPG,> 21
10,YSDGRGN,> 21
11,HRKDVDS,10.5
12,AYISTQT,> 46
13,TQCTCVP,> 25
14,RLNFKGY,0.0339
15,QCPGDRP,> 26
16,YAAAHHH,0.628
17,AESNSVP,2.41
18,ATGGRRC,> 42
19,ACRCEIQ,> 92
20,STKEADQ,2
21,ACRRNLT,> 50
22,TTAVSGH,8
23,SSAKEIP,> 24
24,RHFQGGS,1.9
25,GWSAEHR,0.636

row,Substance,substrate phage enrichment score
1,GVRPHII,0.857
2,HTTNHEC,> 22
3,SAPQANP,0.257
4,SAAAHHN,1.04
5,RRQASQP,1.96
6,HLEQPFN,> 85
7,QSLDRSR,> 24
8,NGACPCG,> 28
9,SDAAAHH,0.04
10,SIPVYSR,> 28
11,HSQTPSE,2
12,RPGDSPS,0.562
13,CPCKHNP,1.2
14,KTPSSLM,4.33
15,CQRDTSG,> 21
16,NEAAHHH,0.634
17,SAAAPHQ,2.02
